Drawing on PubChem BioAssay AID488969 (Vanderbilt High Throughput Screening Facility, 2010), this text covers z-score for 112 molecules.

In all, about 110,000 compounds were measured (“z-score”: median about -0.1, highest 2% from about 2 on). The list shows a part of the results. Calls of active or inactive are those of the source.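 The calls were made as follows: active = z-score in the third read window above 3 or below -3; inactive = the rest.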

The assay addresses Metabotropic glutamate receptor 8 (Rattus norvegicus) (UniProt P70579). As to the kind of experiment: rat mGluR8 modulators via GIRK flux, primary screen, cell-based, thallium flux, HTS (AID 488969). The settings on record: HEK293 rat mGluR8, GIRK (G protein-gated inwardly rectifying potassium channel) thallium flux, FluoZin2; at 10 µM; stronger effect = higher value; submaximal glutamate (EC20) added with thallium.
Sequence of UniProt P70579 (P70579 whole entry, looked up): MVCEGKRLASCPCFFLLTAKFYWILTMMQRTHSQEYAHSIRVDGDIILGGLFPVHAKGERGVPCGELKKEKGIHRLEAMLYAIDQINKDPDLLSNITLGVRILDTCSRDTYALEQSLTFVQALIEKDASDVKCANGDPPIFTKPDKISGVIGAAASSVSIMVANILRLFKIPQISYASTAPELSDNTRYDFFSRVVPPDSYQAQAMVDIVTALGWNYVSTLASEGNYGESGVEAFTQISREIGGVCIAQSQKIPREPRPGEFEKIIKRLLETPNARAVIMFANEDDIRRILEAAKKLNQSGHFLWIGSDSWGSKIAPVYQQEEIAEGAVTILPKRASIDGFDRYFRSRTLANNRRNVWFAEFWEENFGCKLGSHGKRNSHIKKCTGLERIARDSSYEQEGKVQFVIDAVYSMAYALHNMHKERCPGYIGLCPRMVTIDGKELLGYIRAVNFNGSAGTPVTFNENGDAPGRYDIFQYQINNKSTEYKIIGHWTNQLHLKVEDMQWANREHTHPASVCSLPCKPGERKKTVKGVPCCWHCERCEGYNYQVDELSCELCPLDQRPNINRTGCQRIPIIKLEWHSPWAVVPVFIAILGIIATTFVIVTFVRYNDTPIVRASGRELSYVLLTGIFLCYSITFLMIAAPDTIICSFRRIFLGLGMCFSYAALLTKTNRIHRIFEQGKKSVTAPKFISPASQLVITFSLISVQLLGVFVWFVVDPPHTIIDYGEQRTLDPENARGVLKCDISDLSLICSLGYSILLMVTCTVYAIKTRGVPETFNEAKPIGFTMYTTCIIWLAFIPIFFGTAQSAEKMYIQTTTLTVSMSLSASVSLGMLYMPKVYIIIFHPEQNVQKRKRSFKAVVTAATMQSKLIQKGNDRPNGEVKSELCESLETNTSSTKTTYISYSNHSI
The molecule `CCc1ccc(C2NC(c3ccc(CC)cc3)C([N+](=O)[O-])C(C)(C)C2[N+](=O)[O-])cc1` (configuration not stated) displayed a z-score of -0.247.
`CCOC(=O)c1cnc(-c2ccccc2)[nH]c1=O` registered a z-score of -0.0836.
With `Cc1cccc(OCc2nc(C#N)c(N3CC(C)CC(C)C3)o2)c1` (configuration not stated), the z-score was -0.118.
With `COc1ccc(CN2CC(C(=O)NCCCN3CCN(C)CC3)CC2=O)cc1` (configuration not stated), the z-score is -0.0662.
On to `C=CCNC(=S)NNC(=O)CCC(O)CCCCC` (configuration not stated), for which the z-score was 0.312.
The result for `O=C(CN1CCC(n2nnc3cc(C(F)(F)F)ccc32)CC1)Nc1ccc2c(c1)CCC2` reads -0.194; that for `CC(=O)Nc1ccc(S(=O)(=O)NCCSCc2ccc(Cl)cc2Cl)cc1`, 0.0285; that for `Cc1ccc(CSCCC(=O)NCCc2ccc(Cl)cc2)cc1`, 0.0352.
In the case of `O=C(NC1(C(F)(F)F)N=C(c2ccccc2)NC1=O)c1ccccc1F` (configuration not stated), the z-score was -0.0803.
The result for `CC(C)(C)c1ccc(S(=O)(=O)Nc2cccc(C3OCCCO3)c2)cc1` reads -0.207; that for `O=C(CSc1nnc(-c2ccccc2Cl)o1)Oc1ccc(Br)cc1`, -0.585.
For the molecule `CCOC(=O)c1sc(NC(=O)c2cc3n(n2)C(C(F)(F)F)CC(c2cccs2)N3)c(C(=O)OCC)c1C` (configuration not stated), the z-score is -0.126.
The molecule `Cc1ccc(CNC(=O)Cn2cccc2C(=O)c2ccccc2)cc1` gave a z-score of 0.478.
`CCS(=O)(=O)N1CCCC(C(=O)NCCCOC)C1` (configuration not stated): the z-score was determined as 1.06.
The result for `CCOC(=O)c1cnc(SCc2ccc(C)cc2)nc1N` reads 0.367; that for `CCCCn1c(SCc2nnc(-c3ccccc3)o2)nc2c1c(=O)n(C)c(=O)n2C`, -1.34.
Under `Cc1ccc(Nc2nnns2)cc1` stands 0.788.
As for `CCOC(=O)c1cnc(SC)nc1Oc1cccc(NS(=O)(=O)c2ccccc2)c1`, the z-score was 1.2.
The result for `O=C(NC(=S)Nc1ccccc1Cl)c1csnn1` reads active: 11.5.
On to `CSc1nc(C)cc(Oc2ccc(=O)n(C)n2)n1`, for which the z-score is -0.396.
In the case of `Brc1ccc(-c2nc(N/N=C/c3cccnc3)c3ccccc3n2)cc1`, the z-score was 0.00562.
Under `CCOC(=O)COc1cc(Br)c(C2NC(=O)NC(C)=C2C(C)=O)cc1OCC` (configuration not stated) stands -0.148; under `Cc1ccc(C)c(S(=O)(=O)NCc2ccc(C(=O)N3CC(C)OC(C)C3)cc2)c1` (configuration not stated), -0.226; under `CNC(=S)N1CCN(C(=O)C2CCCO2)CC1` (configuration not stated), -0.25.
The result for `Cc1csc(NC(=O)CSc2nc3ccccc3s2)n1` reads -0.293.
Under `Cc1ccc(C)n1CCN1CCN(CC(=O)Nc2ccc(S(N)(=O)=O)cc2)CC1` stands -0.714.
Molecule `Cc1cc(NC(=O)CSc2nc(C(C)C)nc3ccccc23)no1` displayed a z-score of 0.316.
Under `CC(C)COCC1CC2(CC(C)C(=O)CC2=O)C(=O)O1` (configuration not stated) stands -0.209.
Under `CCOc1ccccc1C1CC(=O)Nc2cc3c(cc21)OCCO3` (configuration not stated) stands -1.11; under `Cc1ccc(Oc2ccc(/C=N/O)cn2)cc1`, -0.186.
The molecule `CCCCCCNC(=O)CSc1nccn1Cc1ccccc1` registered a z-score of -0.493.
The molecule `N#C/C(=C/c1ccc(N2CCCCC2)o1)C(=O)Nc1ccc2ccccc2c1` had a z-score of 0.00045.
The molecule `COCCCN1CN(S(=O)(=O)c2ccc(Cl)cc2)c2nc3ccccc3nc21` registered a z-score of -1.48.
Consider `COc1cc(NC(=O)Nc2ccccc2OC)c(OC)cc1NC(=O)CN1CCCCC1`, for which the z-score was -0.219.
The result for `Cc1c([C@H]2[C@@H](CC#N)C2(C)C)c2ccccc2n1C` reads -0.384.
Under `N=c1c(C(=O)NC2CCCC2)cc2c(=O)n3ccccc3nc2n1CCN1CCOCC1` stands -0.359.
Under `Cc1ccc(CN2C(=O)CCC2(C)C(=O)NCc2cccnc2)cc1` (configuration not stated) stands -0.221; under `CCCCNC(=O)/C(C#N)=C/c1cccnc1`, -0.197.
Take `C=CCn1c(SCC(=O)Nc2ccccc2OC)nnc1-c1ccccn1`: the z-score worked out at 0.0118.
Under `COC(=O)Cc1csc(Nc2c(C)n(C)n(-c3ccccc3)c2=O)n1` stands 0.312.
Turning to `CCC(C)c1ccccc1NC(=O)C1CCCO1` (configuration not stated), the z-score is -0.152.
The result for `CSCC[C@H](NC(=O)OC(C)(C)C)C(=O)N/N=C/c1c(C)[nH]c(=O)[nH]c1=O` reads 0.0291.
`CCCCn1nnnc1NCc1ccc(N2CCCC2)cc1` yielded a z-score of 0.182.
The molecule `Cc1ccc(NC(=O)c2ccc3ccccc3n2)nc1` registered a z-score of -0.363.
The result for `O=C(NCCNC(=O)c1ccc(Br)o1)c1ccc(Br)o1` reads 0.887; that for `Cc1ccccc1N1C(=O)c2cccc3c(N(C)CCO)ccc(c23)C1=O`, -0.299.
`Cc1cccc(OC(=O)Cn2c(C(F)(F)F)nc3ccccc32)c1` gave a z-score of -0.253.
Turning to `O=C(CCn1c(=O)sc2ccccc21)NCCCn1ccnc1`, the z-score is -0.0979.
In the case of `CCN(CC)S(=O)(=O)c1ccc(Cl)c(C(=O)Nc2cc(C)nn2-c2ccccc2C(F)(F)F)c1`, the z-score was -0.153.
In turn, `O=C1C=C(c2ccc(Cl)cc2)C(=O)N1Nc1ccccc1` came in with a z-score of -0.198.
With `COc1ccc(-c2nnc(Sc3nc4ccccc4o3)c3ccccc23)cc1`, the z-score was -0.311.
Turning to `Cc1ccc(CN2C(=O)c3ccccc3C2C(=O)NCC2CCCO2)cc1` (configuration not stated), the z-score was -0.147.
On to `Cc1ccccc1-c1nc2ccccc2[nH]1`, for which the z-score was determined as 0.0575.
Under `Nc1cc(N)nc(SCC(=O)N2CCc3ccccc32)n1` stands -0.0748; under `COC(=O)c1ccc2c(=O)n(CC3CCCO3)c(=S)[nH]c2c1` (configuration not stated), active: 7.72; under `CCn1c(Cc2ccccc2)nnc1SCC(=O)Nc1ccc(N2CCOCC2)c(Cl)c1`, -0.645.
Under `COc1ccccc1NC(=O)C(=O)NCC1COc2ccccc2O1` (configuration not stated) stands -0.118.
`CC1CCCN(C(=O)Cn2cnc3c2c(=O)n(C)c(=O)n3C)C1` (configuration not stated) returned a z-score of 0.0575.
Under `O=C(CCn1cnc2ccccc21)N/N=C/c1ccccc1O` stands 0.397.
The result for `CCN(CC)S(=O)(=O)c1ccc(C(=O)NNC(=O)c2cccs2)cc1` reads -0.0626; that for `CCn1c(CNC(=O)COc2ccc(C(C)C)cc2)nnc1SCC(=O)Nc1cc(F)ccc1C`, -0.442.
The result for `Cc1cc(S(=O)(=O)N2CCN(Cc3ccccc3)CC2)c(C)s1` reads -1.48; that for `COC(=O)c1ccc(S(N)(=O)=O)o1`, -0.204.
Regarding `O=c1[nH]c(N2CCc3ccccc32)nc2c1CCCC2`, the z-score is 0.261.
Under `N#Cc1c(NC(=O)c2cc(C3CC3)on2)sc2c1CCC2` stands 1.73.
`NC(=O)C1CCN(c2nnnn2-c2ccccc2)CC1` gave a z-score of -0.231.
With `NS(=O)(=O)c1ccc(CNC(=O)NC2(c3ccccc3)CC2)cc1`, the z-score worked out at 0.359.
Under `COC(=O)C1=C(C)OC(N)=C(C#N)C1c1cccnc1` (configuration not stated) stands 0.264; under `CC1CC(=O)c2cn3c(nc2C1)nc1ccccc13` (configuration not stated), -0.863.
Under `CCC(c1nnnn1CS(=O)(=O)c1ccc(C)cc1)N1CCN(c2nc3ccccc3s2)CC1` (configuration not stated) stands -0.234; under `CCOC(=O)c1cc2n(c1N)-c1ccccc1C2=O`, active: 5.13; under `CC(=O)Nc1ccc(S(=O)(=O)NCc2ccccn2)cc1`, 0.0367.
The result for `O=C(Nc1cccnc1)c1ccc(F)cc1` reads 0.112; that for `O=S(=O)(NCC1CCCO1)c1cc(Cl)ccc1Br` (configuration not stated), -0.128; that for `COc1ccc(CCn2c(C)nc3c(c(=O)c4ccccc4n3C)c2=O)cc1`, -0.439.
`O=C(/C=C/c1ccc(F)cc1)N1CCCN(C(=O)/C=C/c2ccc(F)cc2)CC1` showed a z-score of -0.668.
The result for `COc1ccc(OCc2ccc(C(=O)O)cc2)cc1` reads -0.107.
With `CN(C=[N+](C)C)c1cccc2c1C(=O)c1ccccc1C2=O`, the z-score was -0.254.
The result for `Cc1ccc(-c2c3c(=O)n(C)c(=O)n(C)c3cn2Cc2ccccc2)cc1` reads -1.27.
The result for `C/C(Cl)=C\CNC(C)c1ccccc1` (configuration not stated) reads -0.455; that for `N#Cc1c(N)nc(SCc2ccccn2)c(C#N)c1-c1cccs1`, -0.851.
The result for `NC(=O)c1ccccc1N/C=C/C(=O)c1ccc(F)cc1` reads 0.16.
In the case of `O=C(NCC(c1cccnc1)N1CCN(c2ccccc2F)CC1)C1CCCCC1` (configuration not stated), the z-score turned out to be 0.0811.
In turn, `COc1ccc(Cl)cc1-n1c(C)cc(C=O)c1C` came in with a z-score of -0.55.
Under `CC/C(C)=N/Nc1nc2sc3c(c2c(=O)[nH]1)CC(C)(C)OC3` stands -0.189; under `COc1cccc(CNc2nn[nH]n2)c1OC`, -0.0527.
The result for `CC(Sc1nnc(-c2ccccc2Br)n1-c1cccc(C(F)(F)F)c1)C(N)=O` (configuration not stated) reads -0.394; that for `CCOCCCNC(=S)Nc1ccc2nc(N3CCCC3)cc(C)c2c1`, -0.106; that for `O=C(NCCNC(=O)C1CC2CCC1C2)C1CC2CCC1C2` (configuration not stated), 0.248.
`CCOC(=O)C1CCCN(C(=O)/C=C/c2cccc([N+](=O)[O-])c2)C1` (configuration not stated): the z-score is -0.328.
Under `O=C(CSc1nnc(-c2ccc(Cl)cc2)n1-c1ccc(Cl)cc1)N/N=C/c1ccco1` stands -0.696; under `Cc1ccc(C(=O)NCc2ccco2)cc1S(=O)(=O)Nc1cccc(C)c1C`, -0.819.
Under `N#Cc1cc(C(=O)c2ccccc2OCC(=O)Nc2ccccc2)cn(C2CCCCC2)c1=O` stands -0.273; under `COc1ccc([C@H]2[C@H](C(C)=O)N3N=Cc4ccccc4C3C23C(=O)OC(C)(C)OC3=O)cc1` (some centres not stated), 0.0618; under `COc1ccc(C)cc1NC(=O)CN(C)S(=O)(=O)c1cccs1`, -0.217.
Under `CCn1c(N)c(C(=O)NCc2cccnc2)sc1=S` stands -0.0381; under `CCN1CCN(C(=O)Nc2ccc(Cc3ccc(NC(=O)N4CCN(CC)CC4)cc3)cc2)CC1`, -0.0783; under `COc1ccc(S(=O)(=O)N2CCCC2C(=O)Nn2cnnc2)cc1` (configuration not stated), 0.0765.
`CCOc1cc(NC(=O)c2ccco2)c(OCC)cc1NC(=O)Cc1cccc(OC)c1`: the z-score is -0.676.
On to `S=c1[nH]nc(Cc2cccc3ccccc23)n1-c1ccccc1`, for which the z-score is -0.324.
`CCc1cccc(C)c1N(C(=O)Cn1c(CO)nc2ccccc21)C(C)COC` (configuration not stated): the z-score was -0.0319.
The result for `COc1ccc(NC(=O)CCCn2c(=O)oc3ccccc32)cc1Cl` reads -0.188; that for `CC(=O)N1CCN=C1SCc1ccc(F)cc1`, 0.0688.
Molecule `Cc1cc(C(=O)COc2ccccc2Cl)c(C)n1-c1ccc2c(c1)OCO2` registered a z-score of -0.101.
Take `CCOc1ccc(C2Nc3cccc4cccc(c34)N2)cc1OC`: the z-score was -0.132.
Under `COC(=O)C1C(=O)C2=C(CC1C)NC(=O)CC2c1ccc(O)c(OC)c1` (configuration not stated) stands -0.0388; under `CC1CN(C2CCN(S(=O)(=O)Cc3ccccc3)CC2)CC(C)O1` (configuration not stated), -0.223.
For the molecule `CN1/C(=C\C(=O)Nc2ccc(F)cc2)C(C)(C)c2ccccc21`, the z-score is -0.216.
Regarding `O=C1CN(C(=O)c2cc3ccccc3o2)c2ccccc2N1`, the z-score was -0.144.
Consider `COc1ccc(CCN2C(=S)NC3CC2(C)Oc2ccc([N+](=O)[O-])cc23)cc1OC` (configuration not stated), for which the z-score is -0.313.
The result for `Cc1nc(SCC(=O)Nc2ccc3c(c2)OCO3)c(C#N)c2c1CCCC2` reads -0.476; that for `Cc1ccc(C2C(C#N)=C(N)N(N(C)C)C3=C2C(=O)CCC3)cc1` (configuration not stated), -0.179.
